Where “and” joins values, the source holds several entries; their conditions need not be identical. Equal entries are not always repeated. Screen size: about 420,000 compounds; about 50,000 (12%) were called active. Inconclusive means that the source gave no clear call. Such entries were picked first, then a sample of the others. The call rests on the fitted dose curve; in most records, active means well fitted inhibition curve with a large enough effect; inconclusive means small, poorly fitted or top-dose-only effect; inactive means flat fitted curve, though single readings scatter. Where the call is inconclusive, the potency comes from a doubtful curve fit.
Test: qHTS for Inhibitors of human tyrosyl-DNA phosphodiesterase 1 (TDP1): qHTS in cells in presence of CPT; further: nearly all actives have a fitted effect of over 55% in size
Details: chicken DT40 Tdp1-/-;hTDP1 cells + 20 nM CPT, ATP luminescence, 48 h; activity change, negative = growth inhibition: at 46.2 µM (top of the series)
Summary of the method: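 Chicken DT40 Tdp1-/- cells complemented with human TDP1, 400 cells/well, exposed to compounds plus 20 nM camptothecin for at least 48 h at 37 C; viability read as ATP content by CellTiter-Glo luminescence.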
On the % scale 0 is the no-effect control and ±100 the full control effect; potency means the concentration at half of the fitted maximal effect; tags describe the fitted curve by direction and shape.

| SMILES | Potency | activity change, negative = growth inhibition |
| --- | --- | --- |
| Cc1ccc(S(=O)(=O)N(C)CCN(C)S(=O)(=O)c2ccc(C)cc2)cc1 | inconclusive: 29.1 µM [inhibitor, single point] | – |
| CC(=O)N1c2ccccc2Oc2cc3ccccc3cc21 | inactive | – |
| COc1cccc2c3c(c(C)nc12)CC(CO)O3 (centres undefined) | inconclusive: 0.0291 µM [inhibitor, full curve, poor fit] | – |
| C=CCNC(=S)N/N=C(\C)c1ccc(OC)cc1 | inconclusive: 18.4 µM [inhibitor, single point] | – |
| C=CCSc1nnc(NC(=O)CSc2nc(CCC)cc(=O)[nH]2)s1 | inconclusive: 32.6 µM [inhibitor, single point] | – |
| N#Cc1cccc(-c2cncnc2-n2ccnc2)c1 | inactive | – |
| CCOc1ccc(N(CC(=O)NC(C)(C)C)S(=O)(=O)c2c(C)noc2C)cc1 | inactive | – |
| COc1ccc(C)cc1NC(=O)CCNS(=O)(=O)c1cccc(C(F)(F)F)c1 | – | inconclusive: -34.6% [inhibitor] |
| CCC(=O)Nc1ccc(N2CCCCC2)c(C(=O)Nc2ccc(OC)cc2)c1 | inconclusive: 16.4 µM [inhibitor, single point] | – |
| Cc1nnc(-c2ccc(Oc3ccc(C)c(C)c3)c([N+](=O)[O-])c2)o1 | active: 16.4 µM | – |
| Cc1cc(NC(=O)CSc2nnc(C(C)N(C)C)n2Cc2ccccc2)no1 (centres undefined) | inactive | – |
| CCOc1ccccc1CNC(=O)c1ccc2nc(N3CCC(C)CC3)sc2c1 | inconclusive: 20.6 µM [inhibitor, single point] | – |
| O=C(Nc1ccc(S(=O)(=O)NCc2ccco2)cc1)c1ccncc1 | inconclusive: 29.1 µM [inhibitor, single point] | – |
| Cc1ccccc1Nc1c(-c2ccc(N3CCOCC3)cc2)nc2cccc(C)n12 | inconclusive: 25.9 µM [inhibitor, single point] | – |
| Cc1ccc(NC(=O)c2cc(S(=O)(=O)c3ccccc3)ccc2Cl)cc1 | inconclusive: 11.6 µM [inhibitor, partial curve] | – |
| O=C(COC(=O)c1cccc(OC(F)F)c1)NC(=O)NC1CCCCC1 | inconclusive: 23.1 µM [inhibitor, single point] | – |
| O=C(Nc1ccc(NC(=O)C2CC2)cn1)c1ccccc1Cl | inconclusive: 29.1 µM [inhibitor, single point] | – |
| CC1=C(c2ccc(C)cc2)S(=O)(=O)NC1=NCc1ccccc1Cl | active: 23.1 µM | – |
| Cc1cc(OCc2cc(C(=O)N(C)C(C)c3ccccn3)no2)cc(C)c1Cl (centres undefined) | active: 18.4 µM | – |
| COC(=O)c1cc2sccc2n1Cc1nc(-c2cccc(Cl)c2)oc1C | inconclusive: 16.4 µM [inhibitor, partial curve] and inconclusive: 20.6 µM [inhibitor, single point] | – |
| C=Cc1ccc(Cn2c(C(=O)O)c(CNCCc3ccco3)c3ccc(C)cc32)cc1 | inconclusive: 18.4 µM [inhibitor, single point] | – |
| COc1ccc(CC(=O)NC(C)c2nnc(SCCOc3ccc(OC)cc3)n2C)cc1 (centres undefined) | – | inconclusive: -33.2% [inhibitor] |
| CCC(=O)Nc1ccc(S(=O)(=O)NCCc2ccccc2)cc1 | inconclusive: 9.2 µM [inhibitor, partial curve] | – |

| SMILES | Potency | activity change, negative = growth inhibition |
| --- | --- | --- |
| CCc1ccc(CN2CCN(C(=O)c3ccco3)CC2)cc1 | – | inconclusive: -33.2% [inhibitor] |
| C=C1CCC[C@]2(C)C[C@H]3OC(=O)C(CN[C@@H](C)c4ccccc4)[C@H]3CC12 (some centres undefined) | inconclusive: 29.1 µM [inhibitor, single point] | – |
| CCOc1cc(C2NC(=S)NC(C)=C2C(=O)Nc2ccc(OC)cc2)ccc1O (centres undefined) | – | inconclusive: 1.18% [inhibitor] |
| Cc1ccccc1C(=O)Nc1ccc(N2CCCCCC2)cc1 | active: 14.6 µM | – |
| COCC(=O)Nc1ccc2c(c1)[C@@H]1C[C@H](CC(=O)OC)O[C@@H](CO)[C@@H]1O2 | inactive | – |
| Cc1noc(C)c1S(=O)(=O)N(C)C[C@H]1Oc2ccc(NS(=O)(=O)c3ccccc3)cc2C(=O)N([C@H](C)CO)C[C@@H]1C | inactive | – |
| COc1ccc(NC(=O)c2nn(C)cc2[N+](=O)[O-])cc1 | inactive | – |
| COc1ccc2c(c1)C(C1C(=O)CCCC1=O)c1ccccc1O2 (centres undefined) | inactive | – |
| CCN(CC)S(=O)(=O)c1cc(NS(=O)(=O)c2ccccc2)ccc1C | active: 16.4 µM | – |
| CC(=O)c1ccccc1NC(=O)C1CCCN(C(=O)c2ccc(Cl)cc2)C1 (centres undefined) | inconclusive: 16.4 µM [inhibitor, single point] | – |
| Cc1ccc2oc(-c3cccc(NC(=O)c4cccc5c(Cl)cccc45)c3)nc2c1 | inactive | – |
| O=C(Nc1cc(=O)[nH]c(=O)[nH]1)c1cccc(C(F)(F)F)c1 | inactive | – |
| C[C@H]1C[C@H]2[C@@H]3CCC4=CC(=O)C=C[C@]4(C)[C@@]3(F)[C@@H](O)C[C@]2(C)[C@@]1(O)C(=O)CCl | inactive | – |
| COc1ccc(C(=O)N2CC(c3ccccc3)CC2=O)cc1 (centres undefined) | inconclusive: 29.1 µM [inhibitor, partial curve, poor fit] | – |
| O=C(CN(c1cccc([N+](=O)[O-])c1)S(=O)(=O)c1ccccc1)N(Cc1ccccc1)Cc1ccccc1 | inconclusive: 29.1 µM [inhibitor, single point] | – |
| COc1cc(N)c(Cl)cc1C(=O)NC1CCN(CCCOc2ccc(F)cc2)CC1OC (centres undefined) | inconclusive: 14.3 µM [inhibitor, single point] | – |
| COc1cccc(NC(=O)CN2C(=O)NC(C)(CC(C)C)C2=O)c1 (centres undefined) | inactive | – |
| Cc1ccc(C2CC(C(F)F)n3ncc(C(=O)Nc4c(C)nn(Cc5c(F)cccc5Cl)c4C)c3N2)cc1 (centres undefined) | inconclusive: 20.6 µM [inhibitor, single point] | – |
| COc1ccccc1NC(=O)Nc1nc(CC(=O)Nc2ccc(F)c(F)c2)cs1 | inconclusive: 18.4 µM [inhibitor, single point] | – |
| Cc1nc2sccn2c(=O)c1S(=O)(=O)N1CCN(c2cccc(C(F)(F)F)c2)CC1 | inconclusive: 23.1 µM [inhibitor, single point] | – |
| Cc1c(C(=O)NCc2ccc3c(c2)OCO3)sc(=O)n1Cc1ccc(S(=O)(=O)N(C)C)cc1 | inconclusive: 29.1 µM [inhibitor, partial curve, poor fit] | – |
| Nc1ccc2nc3c(=O)n(C4CCCCC4)c(=O)[nH]c3nc2c1 | inconclusive: 29.1 µM [inhibitor, single point] | – |
| C=CCn1c(CSCc2ccc(C)cc2)nnc1SCC(=O)NCc1ccccc1 | inactive | – |

| SMILES | Potency | activity change, negative = growth inhibition |
| --- | --- | --- |
| COc1ccc(-c2c3c(nc4sc(C(=O)Nc5ccccc5)c(N)c24)CCC3)cc1 | inactive | – |
| Cc1cc2[nH]c(=O)cc(-c3ccccc3)n2n1 | inactive | – |
| CC(C)(C)c1ccc2c(c1)N(CC(=O)N1CCOCC1)C(=O)CO2 | inactive | – |
| Cc1ccc(S(=O)(=O)c2nnn3c2nc(N2CCOCC2)c2ccccc23)c(C)c1 | inconclusive: 23.1 µM [inhibitor, single point] | – |
| COc1ccc(CNc2nc(-c3ccc(Cl)cc3)cc(C(F)(F)F)n2)cc1 | inconclusive: 18.4 µM [inhibitor, partial curve] | – |
| CCOc1ccc(C(C)=O)cc1COC(=O)CNC(=O)C12CC3CC(CC(C3)C1)C2 | inactive | – |
| Cc1ccc(OCCC(=O)Nc2ccc(C)c(S(=O)(=O)N3CCOCC3)c2)cc1 | inconclusive: 29.1 µM [inhibitor, single point] | – |
| COc1ccc(S(=O)(=O)CCC(=O)Nc2c(C)cccc2C)cc1 | inactive | – |
| Cc1ccccc1-c1nnc(SCC(=O)Nc2ccc(Cl)cc2)n1N | inconclusive: 29.1 µM [inhibitor, single point] | – |
| Cc1cccc(N2CCN(C3=NC(=O)C(Cc4ccccc4)S3)CC2)c1 (centres undefined) | inconclusive: 29.1 µM [inhibitor, single point] | – |
| CCN(CC)CCNC(=O)c1[nH]c2ccc(OCc3ccccc3)cc2c1C | inconclusive: 16.4 µM [inhibitor, single point] | – |
| Cc1cc(C)c(CN2CCC(n3nccc3NC(=O)C3CCOC3)CC2)cc1C (centres undefined) | inconclusive: 23.1 µM [inhibitor, single point] | – |
| COc1cccc(Cn2nnc3c(=O)[nH]c(C4CCCN(C(=O)c5ccccc5Cl)C4)nc32)c1 (centres undefined) | inconclusive: 16.4 µM [inhibitor, single point] and inconclusive: 18.4 µM [inhibitor, single point] | – |
| CN(C)c1ccc(C(=O)Nc2ccc(S(=O)(=O)NC3=NCCCCC3)cc2)cc1 | inactive | – |
| O=C1C(=C2CCCCC2)SC(=S)N1Cc1ccco1 | inconclusive: 25.9 µM [inhibitor, single point] | – |
| Cc1ccc(NCC(=O)N/N=C/c2cccn2C)cc1 | inactive | – |
| CCc1nnc(NC(=O)CCC(=O)NCc2ccc(C)cc2)s1 | inactive | – |
| Cc1cc2nc(C3CCN(C(=S)NCC(C)C)CC3)[nH]c2cc1C | inconclusive: 32.6 µM [inhibitor, partial curve, poor fit] | – |
| COc1cccc(Cn2c(=O)c(-c3cc(F)cc(F)c3)nc3cnc(OC)nc32)c1 | inconclusive: 0.13 µM [inhibitor, full curve, poor fit] | – |
| CCCn1c(Nc2ccccc2C)nc2ccccc21 | inactive | – |
| CCOC(=O)c1c(-c2ccccc2)csc1NC(=O)CSc1nc(N)cc(N)n1 | inconclusive: 16.4 µM [inhibitor, single point] | – |
| CSc1nc(N2CCOCC2)nc2ccc(C)cc12 | inconclusive: 18.4 µM [inhibitor, single point] | – |
| CCOC(=O)c1cc(-c2sc(NC(=O)c3ccccc3)nc2C)n(Cc2ccccc2)n1 | active: 16.4 µM | – |
